ChEMBL document CHEMBL4888484, “Replenishing the malaria drug discovery pipeline: Screening and hit evaluation of the MMV Hit Generation Library 1 (HGL1) against asexual blood stage Plasmodium falciparum ,using a nano luciferase reporter read-out” (2022)
Several values for one entry are separate records, joined by “and”; a condition that tells them apart may be missing. Equal entries are not always repeated. Out of some 150,000 compounds screened, about 540 (0.36%) showed an effect of 50% or more. This is one part of the list.

Test system: Plasmodium falciparum
Experiment: Primary screen in NF54 nanoGlo assay, in single point, at 2uM, 72h; a lower Z score goes with more inhibition
Format: functional, Erythrocyte
Details: timepoint 72 hour

SMILES	% Inhibition	Z score	% Inhibition (2 µM)
CCc1[nH]nc(-c2ccccc2OC)c1NC(=O)C1CCCCC1	-8%	1.27	
Cc1csc(C(=O)N[C@H]2CCn3nccc3C2)c1	-14%	2.19	
Cc1nnc(CN2CCN(C)CC23CCCCC3)o1	-6%	0.86	
CNC(=O)CN1CC[C@@](F)(c2cccc(Cl)c2)C1	-7%	0.96	
CC(C)Nc1cccc(C(F)(F)F)c1	4%	-0.58	
Cc1cc(CNCc2nncn2C(C)C)cc(C)c1OC(F)F	-8%	1.31	
CO[C@@]12CC[C@@H](NC(=O)c3ccccc3)C[C@@H]1N(C(=O)c1nc(C)c[nH]1)CC2	-2%	0.33	
FC(F)(F)c1ccc(CCNc2cnccn2)nc1	-27%	2.87	
OCCc1cn(C2CCCC2)nc1C(F)(F)F	1%	-0.18	
N#Cc1ccc(NC(=O)[C@](F)(OC(F)(F)C(F)(F)C(F)(F)F)C(F)(F)F)cc1	47%	-6.1	
COC[C@H]1[C@@H](NS(=O)(=O)CC(C)C)[C@H]2CCO[C@H]21	-7%	1.04	
CCN(CC)C[C@H](C)OC(=O)c1cccc(F)c1	27%	-3.11	
CC1CCN(C(=O)c2ccccc2N2CCC(NC(=O)c3cccc(Cl)c3)CC2)CC1	-3%	0.58	
CC1(CNC(=O)Nc2ccc(C#N)nc2)COC1	-2%	0.21	
O=C(Nc1ccc2c(c1)OCCCO2)C1CCCC1	-13%	1.74	
COc1ccc(CCNC(=O)C[C@@H]2NC(=O)N(c3cccc4ccccc34)C2=O)cc1OC			-7% and 7%
Cc1ccc(Cn2nnc3cc(C(=O)Nc4cccnc4)ccc32)cc1	-18%	1.85	
COCCCCN1CCN(C(=O)c2cccc(-c3ccc(C)nc3)c2)CC1	-16%	1.88	
O=C(c1ccsc1)N1CC[C@@]2(CCCN(Cc3cccc(F)c3F)C2=O)C1	-9%	1.25	
Cc1ccc(-n2cccc2CC(=O)N(C)Cc2ccccc2)cc1	-11%	1.51	
Cc1ccc2c(c1)N(S(C)(=O)=O)CC[C@@H](C(=O)N1CCCC1)O2	4%	-0.48	

SMILES	% Inhibition	Z score	% Inhibition (2 µM)
Cc1cscc1C(=O)NC[C@@H](C(=O)O)c1ccccc1	-9%	1.6	
COc1cccc(-c2cc(C(F)(F)F)n3nc(C(=O)Nc4c(C)nn(CC(=O)N5CCCC5)c4C)cc3n2)c1	3%	-0.39	
Cc1c2c(=O)n(-c3nc4ccccc4s3)n(Cc3ccccc3Cl)c2cc(=O)n1CCc1c[nH]c2ccccc12	33%	-3.75	
O=C(O)c1ccn2c(C(=O)c3ccc(Cl)cc3)c(-c3ccccc3)cc2c1	-2%	0.3	
O=C([C@H]1CC(=O)N(c2ccc(F)cc2)C1)N1CC(c2nc(-c3ccccn3)no2)C1	-1%	0.14	
C#CCN(CC#N)C(=O)CCc1ccsc1	13%	-2.33	
Cc1cc(C(=O)Nc2ccn(Cc3cccc4ccccc34)n2)n2ncnc2n1	28%	-3.2	
CCn1nc(CO)c2c1CCN(C(=O)c1cnn(Cc3ccccc3)c1)C2	-11%	2.04	
O=C(c1cccc(S(=O)(=O)N[C@H]2C[C@@H]2c2ccccc2)c1)N1CCCC1	-7%	0.98	
Cc1nc(-c2ccccc2F)sc1[C@H](C)NC(=O)Nc1cccc(-c2nnco2)c1	-1%	0.15	
O=C(O)C1CN(C(=O)C2CC=CCC2c2nc3ccccc3s2)CCO1 (stereo not given)	-3%	0.43	
CC(C)[C@@H](C(=O)NCCS(N)(=O)=O)c1cccc(Cl)c1	1%	-0.1	
O=C(COc1c(Cl)c(Cl)c(Cl)c(Cl)c1Cl)N1CCC(c2nc3ccccc3o2)CC1	-11%	1.52	
C[C@H](NC(=O)N1CC(CO)C1)C1CCC(F)(F)CC1	5%	-0.98	
CC(C)CN(CC(=O)N(Cc1ccco1)C[C@H]1CCCO1)C(=O)Cc1ccccc1	-9%	1.7	
CCOC(=O)c1cc(S(=O)(=O)N2CCC[C@H]2C(=O)Nc2cccc3c2CCCC3)cn1C	-5%	0.97	
CCn1c(C)nc2cc(NS(=O)(=O)c3ccccc3)cc(C(=O)N(C)Cc3ccsc3)c21	6%	-1.16	
CCNc1ncc(C(=O)N(C)Cc2ccoc2)cn1	-5%	0.88	
Cc1ccc2[nH]c(=O)cc(C(=O)N3CCCCCCC3)c2c1	-7%	0.71	
O=C([C@@H](O)Cc1c(F)cccc1Cl)N1Cc2cccc(Cl)c2C1	-14%	1.17	
O=C(CCC1CCCC1)Nc1cnn(-c2ncncc2N2CCOCC2)c1	-1%	0.09	

SMILES	% Inhibition	Z score	% Inhibition (2 µM)
Cc1cc(C(=O)NCCc2cccnc2)no1	-12%	2.12	
CCOc1ccc2nc(-n3nc(C)c4c3NC(=O)C[C@@H]4c3ccncc3)sc2c1	-14%	2.18	
Cc1nc2cc(CC(=O)NCc3cncn3C3CC3)ccc2[nH]1	-7%	1.25	
Cc1ccc(NC(=O)COC(=O)CN2C(=O)COc3ccccc32)cc1	4%	-0.69	
CCC1CN(c2cc3nncn3c(C)n2)CC(CC)O1 (stereo not given)	4%	-0.71	
Cc1nnc(CN(C)C(=O)c2ccc(N(C)C)cc2)o1	-10%	1.36	
CC(=O)Nc1ccc(-c2c(-c3ccc4c(c3)OCO4)nn(-c3cc(C)ccc3C)c2OC(C)=O)cc1	5%	-0.99	
Cc1cc(C)c(C#N)c(N2CCC3(CCC(=O)N(CCc4c[nH]cn4)C3)CC2)n1	-18%	2.04	
CC(C)(C(=O)N1CC(=O)N(CCC(F)(F)F)C1)C1CCC(O)CC1 (stereo not given)	-11%	1.28	
COCCN(Cc1ccsc1)S(=O)(=O)CCc1ccc(OC)cc1	1%	-0.19	
CCCc1nc(N[C@@H](CC)c2nc(C)c(C)s2)c2cnn(C)c2n1	-20%	1.83	
Cc1cc(C)c(-c2noc(C)n2)c(NC(=O)c2ccc(C)c(C)c2)n1	-5%	0.6	
O=S(=O)(N1CCOCC1)N1CCc2ccccc21	-9%	1.2	
O=C(c1nnc(-c2csc(S(=O)(=O)NC3CCCC3)c2)o1)N1CCCCC1	-5%	0.62	
CCC(C)(NC(=O)C1CCOc2ccc(Cl)cc21)c1nccs1 (stereo not given)	-8%	1.36	
O=C(c1nc(C2CCCC2)nc2c1OCCO2)N1CCCC1	-8%	1.11	
C[C@H](Oc1ccc(NC(=O)c2n[nH]c3c2CCCC3)cc1F)C(=O)O	-2%	0.25	
Cc1cnc2c(c1Nc1ccc(Nc3ccccc3)cc1)c(=O)n(C)c(=O)n2C	9%	-1.2	
COC[C@H]1[C@H](NC(=O)c2ccc(OC)c(F)c2F)[C@H]2CCO[C@H]21	-5%	0.51	
O=C(c1ccc(F)cc1)N1C[C@@H]2C[C@H](C1)c1c(-c3ccc(OC(F)(F)F)cc3)ccc(=O)n1C2	-1%	0.15	
C=CCOC(=S)NC(=O)Cc1ccccc1Cl	36%	-1.06	

SMILES	% Inhibition	Z score	% Inhibition (2 µM)
Cc1ccccc1C[C@@H](C1CCN(C(=O)CCCc2ccccc2)CC1)N(C)C(=O)Cn1cccn1	-4%	0.83	
C[C@H](NC(=O)Nc1ccc(C(N)=O)c(Cl)c1)C1=CCCCC1	-7%	1.38	
Cc1cc(Br)ccc1NC(=O)[C@@H]1CCO1	9%	-1.24	
C[C@H]1c2ccsc2CCN1C(=O)c1ccc(C(=O)O)s1	-25%	3.95	
COc1ccc(NC(=O)Cc2nc(Cc3ccc(F)cc3)n[nH]2)cc1	-4%	0.66	
O=C(NC1CCOCC1)N1CCC[C@@H]1CO	-2%	0.21	
CNC(=O)NCC1CCC2(CCOCC2)C1O (stereo not given)	-15%	2.08	
CO[C@@H](CNS(=O)(=O)c1ccc(C)cc1Br)C(C)C	0%	0.03	
COc1ccccc1-c1noc(-c2c(C)nc3ccccn23)n1	-13%	1.73	
O=C(c1c[nH]c(=O)c(Cl)c1)N1CCC[C@H]1c1nc(-c2ccccc2)no1	-7%	0.92	
C#CC(CC)(CC)NC(=O)COc1ccc(Cl)cc1	6%	-0.73	
COc1ccc2cc1Oc1cccc(c1)CO[C@H]1CCN(C(=O)c3cccnc3)C[C@H]1NC(=O)CC2	-15%	2.79	
COC(C)CS(=O)(=O)NC1CCC(C)CC1C (stereo not given)	-9%	1	
Cc1nnc(-c2ccccc2-c2nc(-c3ccccn3)no2)o1	-13%	1.9	
O=C(CC1CC1)N1C2CCC1CC(n1ccnn1)C2 (stereo not given)	-5%	0.76	
c1ccc2c(c1)CCN2CCNC1CCN(c2ccc3c(c2)OCO3)CC1	-8%	1.24	
Cc1sc2ncnc(N[C@H]3CCN(Cc4ccccc4)C3)c2c1C	-12%	1.49	
CC(C)CN(Cc1cnn(C)c1)C(=O)c1cccc(-c2ccc(=O)n(C)n2)c1	-13%	2.54	
O=c1cc(-c2ccccc2)ncn1Cc1cccc(Cl)c1	6%	-0.73	
CCN1CCN(C(=O)c2sc(C)cc2OC)[C@H]2CS(=O)(=O)C[C@H]21	11%	-1.55	
